Measured values: patent US11178870B2 (priority 2017, dated 2021)

Experiments:
Magnaporthe grisea = type: in vivo; conditions: class of control value, Table 7
Phytophthora infestans = type: in vivo; conditions: class of control value, Table 7
[1] = test system: Colletotrichum orbiculare; conditions: 250 ppm spray, 2.5 ml/pot; investigated 6 to 10 days after inoculation

| SMILES | Test A control value (blast on rice) (Magnaporthe grisea) | Test F control value (late blight on tomato) (Phytophthora infestans) | Test H control value (anthracnose on cucumber) [1] |
| --- | --- | --- | --- |
| Cc1cnn(-c2cc(Cl)c(=O)n(CC(F)F)c2-c2ccccc2Br)c1Cl [Compound 407] | H (H shows the control value more than 50%) | L (L shows the control value of 50% or less) | H (H shows the control value more than 50%) |
| Cn1c(-c2ccc(F)cc2Cl)c(-n2cc(Cl)cn2)ccc1=O [Compound 451] | L (L shows the control value of 50% or less) | L (L shows the control value of 50% or less) | L (L shows the control value of 50% or less) |
| Cc1ccsc1-c1ccc(=O)n(C)c1-c1c(F)cccc1F [Compound 496] | H (H shows the control value more than 50%) | L (L shows the control value of 50% or less) | L (L shows the control value of 50% or less) |
| CCn1c(-c2ccc(OC)cc2Cl)c(-c2ccsc2Cl)cc(Br)c1=O [Compound 504] | H (H shows the control value more than 50%) | L (L shows the control value of 50% or less) | H (H shows the control value more than 50%) |
| CCn1c(-c2ccc(OC)cc2Cl)c(-c2ccsc2Cl)ccc1=O [Compound 497] | H (H shows the control value more than 50%) | L (L shows the control value of 50% or less) | H (H shows the control value more than 50%) |
| CNn1c(-c2ccc(F)cc2Cl)c(-n2ncc(C)c2Cl)cc(Br)c1=O [Compound 478] | H (H shows the control value more than 50%) | L (L shows the control value of 50% or less) | H (H shows the control value more than 50%) |
